Measured values from the supplement of paper PMC11876631.
± gives the standard deviation of the averaged measurements. Laboratory Escherichia coli strains with one amino-acid change in an essential protein, pooled on minimal glucose agar with carbenicillin or gentamicin at twice the control MIC (plus kanamycin and chloramphenicol for the plasmids), 48 h. Fold change of barcode share against drug-free plates; higher = less susceptible. Active = above 20 in both replicates (the paper's putatively resistant). '<' = one read or none on drug, '>' = one read or none on a drug-free plate. Shares are relative, so most strains fall below 1 when a few take over. Listed are strains with at least 15 reads on both drug-free plates, and hits; most hits rest on fewer reference reads. Replicate rank correlation about 0.5. Edits are read from barcodes.

B1: hisC; numbered along this chain (parent)
chain: MSTVTITDLARENVRNLTPYQSARRLGGNGDVWLNANEYPTAVEFQLTQQTLNRYPECQPKAVIENYAQYAGVKPEQVLVSRGADEGIELLIRAFCEPGKDAILYCPPTYGMYSVSAETIGVECRTVPTLDNWQLDLQGISDKLDGVKVVYVCSPNNPTGQLINPQDFRTLLELTRGKAIVVADEAYIEFCPQASLAGWLAEYPHLAILRTLSKAFALAGLRCGFTLANEEVINLLMKVIAPYPLSTPVADIAAQALSPQGIVAMRERVAQIIAEREYLIAALKEIPCVEQVFDSETNYILARFKASSAVFKSLWDQGIILRDQNKQPSLSGCLRITVGTREESQRVIDALRAEQV
B2: nrdB; numbered along this chain (parent)
chain: MAYTTFSQTKNDQLKEPMFFGQPVNVARYDQQKYDIFEKLIEKQLSFFWRPEEVDVSRDRIDYQALPEHEKHIFISNLKYQTLLDSIQGRSPNVALLPLISIPELETWVETWAFSETIHSRSYTHIIRNIVNDPSVVFDDIVTNEQIQKRAEGISSYYDELIEMTSYWHLLGEGTHTVNGKTVTVSLRELKKKLYLCLMSVNALEAIRFYVSFACSFAFAERELMEGNAKIIRLIARDEALHLTGTQHMLNLLRSGADDPEMAEIAEECKQECYDLFVQAAQQEKDWADYLFRDGSMIGLNKDILCQYVEYITNIRMQAVGLDLPFQTRSNPIPWINTWLVSDNVQVAPQEVEVSSYLVGQIDSEVDTDDLSNFQL
B3: glnA; numbered along this chain (parent)
chain: MSAEHVLTMLNEHEVKFVDLRFTDTKGKEQHVTIPAHQVNAEFFEEGKMFDGSSIGGWKGINESDMVLMPDASTAVIDPFFADSTLIIRCDILEPGTLQGYDRDPRSIAKRAEDYLRSTGIADTVLFGPEPEFFLFDDIRFGSSISGSHVAIDDIEGAWNSSTQYEGGNKGHRPAVKGGYFPVPPVDSAQDIRSEMCLVMEQMGLVVEAHHHEVATAGQNEVATRFNTMTKKADEIQIYKYVVHNVAHRFGKTATFMPKPMFGDNGSGMHCHMSLSKNGVNLFAGDKYAGLSEQALYYIGGVIKHAKAINALANPTTNSYKRLVPGYEAPVMLAYSARNRSASIRIPVVSSPKARRIEVRFPDPAANPYLCFAALLMAGLDGIKNKIHPGEAMDKNLYDLPPEEAKEIPQVAGSLEEALNELDLDREFLKAGGVFTDEAIDAYIALRREEDDRVRMTPHPVEFELYYSV
B4: secE; a variant is named by its letters at X, in order (parent)
chain: MSANTEAQGSGRGLEAMKWXXVXAXLLVAIVGNYLYRDIMLPLRALAVXILIAAAGGVALLTTKGKATVAFAREARTEVRKVIWPTRQETLHTTLIVAAVTAVMSLILWGLDGILVRLVSFITGLRF

Variants of: B1
Experiment: barcode share on antibiotic plates over drug-free plates; higher = less susceptible
Conditions: with Escherichia coli (laboratory strain); antibiotic: carbenicillin; 2× MIC (3.1 µg/mL)
Method: (§1)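 A pool of E. coli strains, each edited to carry one amino-acid change in an essential protein, was grown for 48 h on minimal glucose agar with or without antibiotic; strain barcodes were sequenced; mean of two replicates.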

Row | Variant | fold change of barcode share
1 | I103D | 0.581 ± 0.16
2 | I103W | 1.72 ± 0.76
3 | L334W | 0.41 ± 0.061
4 | L334Q | 0.317 ± 0.018
5 | L334A | 0.502 ± 0.05
6 | I336Q | 0.318 ± 0.061
7 | I336A | 0.776 ± 0.23
8 | I336P | 0.379 ± 0.19
9 | I336W | 0.454 ± 0.16
10 | I92W | 0.447 ± 0.12
11 | I92A | 0.52 ± 0.15
12 | I92Q | 0.587 ± 0.17
13 | I92P | 0.513 ± 0.2
14 | L104A | 0.481 ± 0.2
15 | L104W | 0.416 ± 0.13
16 | L104Q | 0.559 ± 0.065
17 | L104D | 0.692 ± 0.22
18 | V182Q | 0.398 ± 0.0027
19 | V182P | 0.716 ± 0.3

Same assay, conditions: with Escherichia coli (laboratory strain); antibiotic: gentamicin; 2× MIC (MIC 0.45 µg/mL)

Row | Variant | fold change of barcode share
20 | I103D | 0.0726 ± 0.08
21 | I103W | 0.0414 ± 0.035
22 | L334W | < 0.0119
23 | L334Q | < 0.014
24 | I336Q | < 0.0129
25 | I336A | < 0.0164
26 | I336P | 0.027 ± 0.022
27 | I336W | < 0.0119
28 | I92W | 0.00923 ± 0.0023
29 | I92A | 0.00818 ± 0.0036
30 | I92Q | < 0.0068
31 | I92P | < 0.00295
32 | L104A | 0.0223 ± 0.014
33 | L104W | 0.0181 ± 0.012
34 | L104Q | 0.035 ± 0.001
35 | L104D | < 0.0156
36 | V182A | < 0.0135
37 | V182P | < 0.0187

Variants of: B2
Experiment: as above
Conditions: with Escherichia coli (laboratory strain); antibiotic: carbenicillin; 2× MIC (3.1 µg/mL)
Method: as §1

Row | Variant | fold change of barcode share
38 | I232A | 0.371 ± 0.12
39 | F217W | 0.0765 ± 0.0066
40 | V24A | 0.717 ± 0.75
41 | V24Q | 0.188 ± 0.033
42 | V24P | 0.749 ± 0.32
43 | L99Q | 0.294 ± 0.053
44 | L99P | 0.118 ± 0.0012
45 | L99W | 0.224 ± 0.081
46 | L99D | 0.25 ± 0.1
47 | L99A | 0.18 ± 0.054
48 | I100Q | 0.166 ± 0.019
49 | I100A | 0.5 ± 0.16
50 | I100P | 0.131 ± 0.091
51 | L97A | 0.295 ± 0.089
52 | L97W | 0.436 ± 0.03
53 | L97Q | 0.193 ± 0.15
54 | L97D | 0.165 ± 0.011
55 | L97P | 0.1 ± 0.047
56 | L250W | 0.0377 ± 0.003
57 | L250A | 0.171 ± 0.096
58 | L250Q | 0.144 ± 0.12

Same assay, conditions: with Escherichia coli (laboratory strain); antibiotic: gentamicin; 2× MIC (MIC 0.45 µg/mL)

Row | Variant | fold change of barcode share
59 | I232A | < 0.0125
60 | F217W | 0.24 ± 0.32
61 | V24A | 0.0274 ± 0.026
62 | V24Q | < 0.00826
63 | V24P | 0.00721 ± 0.0036
64 | L99Q | < 0.00474
65 | L99P | < 0.00922
66 | L99W | < 0.00658
67 | L99D | < 0.00797
68 | L99A | < 0.00495
69 | I100Q | < 0.00752
70 | I100A | 0.0101 ± 0.0083
71 | I100P | < 0.0121
72 | L97A | 0.0149 ± 0.016
73 | L97W | 0.0056 ± 0.004
74 | L97Q | < 0.00577
75 | L97D | 0.0113 ± 0.0099
76 | L97P | 0.756 ± 1.1
77 | L250W | 0.0617 ± 0.05
78 | L250A | 0.012 ± 0.0019
79 | L250Q | 0.0868 ± 0.061
80 | I127W | < 0.0171

Variants of: B3
Experiment: as above
Conditions: with Escherichia coli (laboratory strain); antibiotic: carbenicillin; 2× MIC (3.1 µg/mL)
Method: as §1

Row | Variant | fold change of barcode share
81 | M332D | 0.496 ± 0.22
82 | M332P | 0.49 ± 0.014
83 | M332W | 0.433 ± 0.07
84 | M332Q | 0.3 ± 0.012
85 | L375A | 0.511 ± 0.038
86 | L375Q | 0.329 ± 0.086
87 | L375P | 0.292 ± 0.079
88 | L375W | 0.227 ± 0.067
89 | L375D | 0.353 ± 0.21
90 | L376Q | 0.445 ± 0.15
91 | L376W | 0.866 ± 0.3
92 | L376A | 0.449 ± 0.0095
93 | M377A | 0.629 ± 0.23
94 | M377Q | 0.285 ± 0.084

Same assay, conditions: with Escherichia coli (laboratory strain); antibiotic: gentamicin; 2× MIC (MIC 0.45 µg/mL)

Row | Variant | fold change of barcode share
95 | M332D | < 0.00481
96 | M332P | 0.118 ± 0.16
97 | M332W | 0.00317 ± 0.0025
98 | M332Q | 0.00483 ± 0.0021
99 | L375Q | < 0.00313
100 | L375P | < 0.0113
101 | L375W | < 0.00989
102 | L375D | 0.316 ± 0.44
103 | L376Q | 0.114 ± 0.16
104 | L376W | < 0.0154
105 | L376A | < 0.00445
106 | L376P | < 0.0143
107 | M377A | < 0.0154
108 | M377Q | < 0.00828

Variants of: B4
Experiment: as above
Conditions: with Escherichia coli (laboratory strain); antibiotic: carbenicillin; 2× MIC (3.1 µg/mL)
Method: as §1

Row | Variant | fold change of barcode share
109 | VQVLV | 0.479 ± 0.033
110 | VDVLV | 0.318 ± 0.13

Same assay, conditions: with Escherichia coli (laboratory strain); antibiotic: gentamicin; 2× MIC (MIC 0.45 µg/mL)

Row | Variant | fold change of barcode share
111 | VQVLV | 0.00877 ± 0.0083
112 | VDVLV | 0.00327 ± 0.0011
